Data as given in publication PMC2671562.
These are yes or no findings as the source states them, for the method shown. Some binding calls cover weakened binding; strength is not graded here.

Assays:
[1] = molecular target: dPER[232–599] E474R/H492S/R494D (Drosophila melanogaster) (UniProt P07663); assay: SEC; gel filtration of the dPER[232–599] E474R/H492S/R494D mutant, unpublished data; both purified
[2] = molecular target: dPER[232–599] M560D/W482E (Drosophila melanogaster) (UniProt P07663); assay: AUC; sedimentation equilibrium, interference optics, 10 °C, 25 mM HEPES pH 7.7, 100 mM NaCl, 2 mM DTE; four starting concentrations from stocks of 0.8–2 mg/ml; dimer to monomers, K D = 1/K A; both purified
[3] = molecular target: dPER[232–599] M560D/W482E (Drosophila melanogaster) (UniProt P07663); assay: SEC; analytical gel filtration of GST-free dPER fragments, HiLoad Superdex 200 16/60, 4 °C, 25 mM HEPES pH 7.7, 200 mM NaCl, 2 mM DTE; 1 ml of 5–10 mg/ml loaded; both purified
[4] = molecular target: T1, Drosophila TIMELESS, full-length, two-hybrid bait (Drosophila) (UniProt P49021); assay: two-hybrid; dPER fragments as prey (pJG4–5), full-length dTIM as bait (pEG202), yeast EGY48, lacZ reporter on X-Gal medium, 2–3 d at 30 °C
T1 sequence: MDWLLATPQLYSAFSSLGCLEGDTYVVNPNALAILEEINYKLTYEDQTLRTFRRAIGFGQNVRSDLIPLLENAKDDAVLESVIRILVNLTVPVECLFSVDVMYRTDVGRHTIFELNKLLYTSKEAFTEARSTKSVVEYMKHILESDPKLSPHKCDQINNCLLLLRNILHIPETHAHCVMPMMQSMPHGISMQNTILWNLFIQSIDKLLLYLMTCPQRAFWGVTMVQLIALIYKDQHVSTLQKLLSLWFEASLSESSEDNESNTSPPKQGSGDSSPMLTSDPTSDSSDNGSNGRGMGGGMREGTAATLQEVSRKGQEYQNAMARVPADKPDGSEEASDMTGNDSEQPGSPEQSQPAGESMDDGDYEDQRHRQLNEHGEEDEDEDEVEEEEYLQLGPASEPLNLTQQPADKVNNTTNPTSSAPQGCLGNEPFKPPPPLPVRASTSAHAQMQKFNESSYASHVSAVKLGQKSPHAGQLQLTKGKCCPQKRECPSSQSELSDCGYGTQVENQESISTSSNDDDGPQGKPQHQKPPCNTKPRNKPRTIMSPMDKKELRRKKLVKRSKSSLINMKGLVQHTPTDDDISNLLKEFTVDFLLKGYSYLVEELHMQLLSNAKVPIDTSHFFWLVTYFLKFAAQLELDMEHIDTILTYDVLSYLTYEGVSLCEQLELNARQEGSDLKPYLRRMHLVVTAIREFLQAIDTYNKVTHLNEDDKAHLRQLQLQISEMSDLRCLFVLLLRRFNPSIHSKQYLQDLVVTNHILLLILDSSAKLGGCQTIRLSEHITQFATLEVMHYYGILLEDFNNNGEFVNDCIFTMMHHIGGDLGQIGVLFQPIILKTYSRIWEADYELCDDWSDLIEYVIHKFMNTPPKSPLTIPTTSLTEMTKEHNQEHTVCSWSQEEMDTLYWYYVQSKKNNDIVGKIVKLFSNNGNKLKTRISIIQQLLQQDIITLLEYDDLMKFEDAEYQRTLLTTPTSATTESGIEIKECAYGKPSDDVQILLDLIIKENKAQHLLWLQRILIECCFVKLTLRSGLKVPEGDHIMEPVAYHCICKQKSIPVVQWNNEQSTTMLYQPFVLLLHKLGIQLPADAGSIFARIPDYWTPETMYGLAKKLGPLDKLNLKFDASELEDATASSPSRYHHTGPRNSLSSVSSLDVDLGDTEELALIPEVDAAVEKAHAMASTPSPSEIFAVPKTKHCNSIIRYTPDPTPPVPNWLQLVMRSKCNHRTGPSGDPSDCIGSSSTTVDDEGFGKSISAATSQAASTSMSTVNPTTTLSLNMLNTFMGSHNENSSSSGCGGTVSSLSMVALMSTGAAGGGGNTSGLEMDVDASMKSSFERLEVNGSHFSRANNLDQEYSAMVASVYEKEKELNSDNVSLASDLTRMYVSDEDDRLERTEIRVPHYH

dPER[232–599] E474R/H492S/R494D (from UniProt P07663 232-599) (domain or fragment)
binding [1]: binds

dPER[232–599] M560D/W482E (from UniProt P07663 232-599) (domain or fragment)
binding [2]: no binding (tested: stock solutions 0.8–2 mg/ml)
binding [3]: no binding (tested: 1 ml of 5–10 mg/ml loaded)

dPERΔαF[232–538] E474R/H492S/R494D, two-hybrid prey (from UniProt P07663 232-538) (domain or fragment)
binding [4]: no binding

dPERΔαF[232–538], wild-type, two-hybrid prey (from UniProt P07663 232-538) (domain or fragment)
binding [4]: binds
